The densities may have been worked out from excess volumes.
Assay: xn = mol fraction of the nth substance listed
Conditions: 298.15 K, 101.3 kPa

`CCOS(=O)(=O)[O-].CC[n+]1ccn(C)c1` + CCCCCCCCCCO gave a mass density (x2 = 0) of 1238 kg/m3, a mass density (x2 = 0.1568) of 1171.5 kg/m3 and a mass density (x2 = 0.2555) of 1129.8 kg/m3. For the same compound, the mass density (x2 = 0.3654) was 1084.2 kg/m3, the mass density (x2 = 0.5215) was 1019.8 kg/m3 and the mass density (x2 = 0.7774) was 915.7 kg/m3. It also gave a mass density (x2 = 0.8874) of 871.2 kg/m3 and a mass density (x2 = 0.9542) of 844.4 kg/m3.
`CCOS(=O)(=O)[O-].CC[n+]1ccn(C)c1` + CCCCCCCCCO gave a mass density (x2 = 0) of 1238 kg/m3.
`CCOS(=O)(=O)[O-].CC[n+]1ccn(C)c1` + CCCCCCCCO gave a mass density (x2 = 0) of 1238 kg/m3, a mass density (x2 = 0.2529) of 1147.2 kg/m3 and a mass density (x2 = 0.4759) of 1056.9 kg/m3. The mass density (x2 = 0.6459) was 984.3 kg/m3 and the mass density (x2 = 0.748) was 940.1 kg/m3.
For `CCOS(=O)(=O)[O-].CC[n+]1ccn(C)c1` + CCCCCCCO, the mass density (x2 = 0) was 1238 kg/m3, the mass density (x2 = 0.029) was 1229.1 kg/m3 and the mass density (x2 = 0.0813) was 1213.1 kg/m3. The mass density (x2 = 0.2898) was 1140 kg/m3, the mass density (x2 = 0.5831) was 1022.6 kg/m3 and the mass density (x2 = 0.696) was 972.3 kg/m3. It also gave a mass density (x2 = 0.8236) of 911.8 kg/m3, a mass density (x2 = 0.9012) of 872.1 kg/m3 and a mass density (x2 = 0.9579) of 843.1 kg/m3.
Work on `CCOS(=O)(=O)[O-].CC[n+]1ccn(C)c1` + CCCCCCO yielded a mass density (x2 = 0) of 1238 kg/m3, a mass density (x2 = 0.1386) of 1198.2 kg/m3 and a mass density (x2 = 0.2602) of 1158.8 kg/m3. It also gave a mass density (x2 = 0.33) of 1135.3 kg/m3, a mass density (x2 = 0.3963) of 1111.8 kg/m3 and a mass density (x2 = 0.5823) of 1035.1 kg/m3. It also gave a mass density (x2 = 0.6807) of 990.1 kg/m3, a mass density (x2 = 0.7586) of 951.9 kg/m3 and a mass density (x2 = 0.8466) of 905.6 kg/m3. For the same compound, the mass density (x2 = 0.92) was 870.6 kg/m3 and the mass density (x2 = 0.9678) was 835.4 kg/m3.
`CCOS(=O)(=O)[O-].CC[n+]1ccn(C)c1` + CCCCCO showed a mass density (x2 = 0) of 1238 kg/m3, a mass density (x2 = 0.1561) of 1198 kg/m3 and a mass density (x2 = 0.2862) of 1160 kg/m3. For the same compound, the mass density (x2 = 0.4099) was 1118 kg/m3, the mass density (x2 = 0.5411) was 1066 kg/m3 and the mass density (x2 = 0.6432) was 1029 kg/m3. The mass density (x2 = 0.7205) was 984 kg/m3, the mass density (x2 = 0.78) was 950 kg/m3 and the mass density (x2 = 0.8435) was 916 kg/m3. The mass density (x2 = 0.936) was 857 kg/m3 and the mass density (x2 = 0.98) was 833 kg/m3.
In the case of `CCOS(=O)(=O)[O-].CC[n+]1ccn(C)c1` + CCCCO, the mass density (x2 = 0) is reported as 1236.9 kg/m3, the mass density (x2 = 0.0734) is reported as 1221.7 kg/m3 and the mass density (x2 = 0.1247) is reported as 1210.4 kg/m3. For the same compound, the mass density (x2 = 0.1579) was 1202.6 kg/m3, the mass density (x2 = 0.1874) was 1195.4 kg/m3 and the mass density (x2 = 0.2539) was 1178.1 kg/m3. For the same compound, the mass density (x2 = 0.3116) was 1161.7 kg/m3, the mass density (x2 = 0.4114) was 1130.2 kg/m3 and the mass density (x2 = 0.5145) was 1092.9 kg/m3. It also gave a mass density (x2 = 0.5936) of 1060.4 kg/m3, a mass density (x2 = 0.6716) of 1024.4 kg/m3 and a mass density (x2 = 0.7746) of 969.3 kg/m3. For the same compound, the mass density (x2 = 0.8577) was 917.2 kg/m3, the mass density (x2 = 0.9019) was 885.9 kg/m3 and the mass density (x2 = 0.9613) was 839.4 kg/m3.
Compound `CCOS(=O)(=O)[O-].CC[n+]1ccn(C)c1` + CCCO has a mass density (x2 = 0) of 1236.9 kg/m3, a mass density (x2 = 0.019) of 1233.9 kg/m3 and a mass density (x2 = 0.1203) of 1215.7 kg/m3. It also gave a mass density (x2 = 0.2803) of 1181.1 kg/m3, a mass density (x2 = 0.373) of 1156.9 kg/m3 and a mass density (x2 = 0.4597) of 1130.5 kg/m3. It also gave a mass density (x2 = 0.6043) of 1076.3 kg/m3, a mass density (x2 = 0.6802) of 1041 kg/m3 and a mass density (x2 = 0.7586) of 998.2 kg/m3. The mass density (x2 = 0.8948) was 902.8 kg/m3 and the mass density (x2 = 0.9595) was 843.5 kg/m3.
Compound `CCCCCCCCCCO` + CCOS(=O)(=O)[O-].CC[n+]1ccn(C)c1 has a mass density (x1 = 1) of 826 kg/m3.
For `CCCCCCCCCO` + CCOS(=O)(=O)[O-].CC[n+]1ccn(C)c1, the mass density (x1 = 0.1763) was 1180.9 kg/m3, the mass density (x1 = 0.4982) was 1061.5 kg/m3 and the mass density (x1 = 0.7088) was 970.6 kg/m3. For the same compound, the mass density (x1 = 0.9435) was 855.2 kg/m3 and the mass density (x1 = 1) was 824.2 kg/m3.
In the case of `CCCCCCCCO` + CCOS(=O)(=O)[O-].CC[n+]1ccn(C)c1, the mass density (x1 = 1) is reported as 821.7 kg/m3.
Compound `CCCCCCO` + CCOS(=O)(=O)[O-].CC[n+]1ccn(C)c1 has a mass density (x1 = 1) of 815 kg/m3.
Work on `CCCCCO` + CCOS(=O)(=O)[O-].CC[n+]1ccn(C)c1 yielded a mass density (x1 = 1) of 813 kg/m3.
With `CCCCO` + CCOS(=O)(=O)[O-].CC[n+]1ccn(C)c1 the mass density (x1 = 1) was 805.7 kg/m3.
With `CCCO` + CCOS(=O)(=O)[O-].CC[n+]1ccn(C)c1 the mass density (x1 = 1) was 799.5 kg/m3.
